Out of some 310,000 compounds screened, about 14,000 (4.5%) showed an effect of 50% or more. Effects have a minus sign here. The list shows a part of the results.
target: human ether-à-go-go-related gene (hERG) potassium channel (human, UniProt Q12809); test: primary screen, population patch clamp on CHO cells stably expressing hERG
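Note: peak tail current of the secondary pulse compared with the same well before compound.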

human ether-à-go-go-related gene (hERG) potassium channel, sequence (Q12809 whole entry, looked up): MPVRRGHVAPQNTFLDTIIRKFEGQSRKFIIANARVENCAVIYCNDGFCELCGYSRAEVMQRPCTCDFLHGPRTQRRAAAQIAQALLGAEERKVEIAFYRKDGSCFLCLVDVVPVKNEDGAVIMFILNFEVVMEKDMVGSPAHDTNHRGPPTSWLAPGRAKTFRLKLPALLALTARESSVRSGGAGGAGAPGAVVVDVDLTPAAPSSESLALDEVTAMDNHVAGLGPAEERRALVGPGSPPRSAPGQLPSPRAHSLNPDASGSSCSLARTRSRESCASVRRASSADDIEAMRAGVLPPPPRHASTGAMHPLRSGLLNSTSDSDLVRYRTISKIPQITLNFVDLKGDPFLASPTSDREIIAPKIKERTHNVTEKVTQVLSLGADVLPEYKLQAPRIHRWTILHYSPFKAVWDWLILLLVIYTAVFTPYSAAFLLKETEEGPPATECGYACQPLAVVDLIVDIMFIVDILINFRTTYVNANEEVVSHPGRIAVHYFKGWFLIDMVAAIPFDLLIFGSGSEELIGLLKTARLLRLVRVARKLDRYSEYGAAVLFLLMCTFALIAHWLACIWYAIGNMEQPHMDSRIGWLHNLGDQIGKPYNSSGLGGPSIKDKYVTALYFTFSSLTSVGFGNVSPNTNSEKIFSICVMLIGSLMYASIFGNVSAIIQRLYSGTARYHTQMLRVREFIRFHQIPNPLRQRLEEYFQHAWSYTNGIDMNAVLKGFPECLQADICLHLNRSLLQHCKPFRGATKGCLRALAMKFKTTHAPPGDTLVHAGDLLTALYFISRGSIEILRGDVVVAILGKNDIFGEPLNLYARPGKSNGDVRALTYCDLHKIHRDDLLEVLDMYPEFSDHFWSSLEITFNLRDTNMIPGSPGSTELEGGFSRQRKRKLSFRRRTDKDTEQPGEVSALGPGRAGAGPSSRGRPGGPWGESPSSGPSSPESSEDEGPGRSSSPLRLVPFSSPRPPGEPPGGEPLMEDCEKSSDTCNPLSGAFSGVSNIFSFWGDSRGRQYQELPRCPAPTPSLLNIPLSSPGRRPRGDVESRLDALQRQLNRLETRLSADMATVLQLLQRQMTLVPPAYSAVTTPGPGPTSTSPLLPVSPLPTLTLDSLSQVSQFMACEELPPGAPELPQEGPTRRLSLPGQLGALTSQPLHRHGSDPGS

SMILES	hERG current change (%, negative = inhibition) at 10uM
CC(=O)N1CCCN(Cc2cn(-c3cc(C)ccc3C)nc2-c2ccccc2)CC1	-30.3%
Cc1cc(OCc2nn[nH]n2)c2c3c(c(=O)oc2c1)CCCC3	12.1%
O=C(CSc1nc2ccccc2n1CC(=O)N1CCCC1)Nc1nccs1	-18.5%
Cc1ccc(S(=O)(=O)NC(=O)Nc2ccc(OC(F)F)cc2)cc1	-3.1%
Cn1nnnc1NCc1ccccc1F	4.52%
COC(=O)C1=C(C(=O)OC)[C@@H]2N(C)c3ccc(OC)cc3[C@@]23C[C@@H](C(=O)OC)N(C(=O)COCc2ccccc2)C3=N1	-55%
NC(=O)[C@@H]1CC2(CC(c3cccc(NC(=O)[C@H]4CCC(=O)N4)c3)=NO2)CN1C(=O)c1ccc(Cl)cc1 (stereo partly shown)	1.1%
COc1ccc(N=Cc2c(O)[nH]c3ccccc23)cc1OC	-22.4%
Cc1ccccc1CSc1nc2c(c(=O)[nH]1)CCCC2	2.17%
CCCCn1c(N)c(N(CCOC)C(=O)c2ccc(-c3ccc(Cl)cc3)o2)c(=O)[nH]c1=O	9.18%
CCn1c(=O)cc(SCC(=O)N2CCN(c3ccccc3OC)CC2)c2ccccc21	-52%
CCCN(CCC)CCNC(=O)C(NS(=O)(=O)c1ccc2c(c1)CCC(=O)N2)c1ccccc1 (stereo not shown)	-4.89%
CS(=O)(=O)c1ccc(-c2nnc(NC(=O)C3=COCCO3)o2)cc1	-6.41%
O=C(c1ccc(Cl)nc1)N1CCC(Cc2ccccc2)CC1	-19.8%
CCn1cc(C(=O)NC(C)C2CC3CCC2C3)cn1 (stereo not shown)	1.48%
S=C(NC1CCCCC1)N1CCN(c2ncccn2)CC1	9.57%
COc1ccccc1NC(=O)c1ccc(C(=O)Nc2ccccc2OC)nc1	24.8%
CN(C)CCCNC(=O)C(=O)NCC(c1cccs1)S(=O)(=O)c1ccc(F)cc1 (stereo not shown)	9.5%
COCCNC(=O)CSc1nc2sccc2c(=O)n1-c1ccccc1	15.3%
O=C(NC(=S)N1C[C@H]2C[C@H](C1)c1cccc(=O)n1C2)c1ccc(Cl)cc1Cl	-1.16%
COC(=O)c1cc(S(=O)(=O)NCc2ccccc2Cl)c[nH]1	17.1%
Cl.Clc1ccc(CN2C3=NCCCN3c3ccccc32)cc1Cl	-76.3%

SMILES	hERG current change (%, negative = inhibition) at 10uM
Cc1cc(NC(=O)CSc2nnc(C3CC3)n2Cc2ccccc2)no1	-8.63%
O=C(Nc1ccc2c(c1)OCCO2)c1ccncc1	7.56%
CN1CCN(c2ccc(NC(=O)Oc3ccccc3)cc2)CC1	17.4%
CC(=O)N1CCN(S(=O)(=O)c2cccc(C(=O)OCc3cccc(F)c3)c2)CC1	-17.2%
CCC(C)(C)n1nnnc1CN1CCN(c2nc3cc(OC)ccc3cc2C#N)CC1	-5.99%
O=C1CN(C(=O)CCCc2c[nH]c3ccccc23)c2ccccc2N1	1.84%
O=C(N/N=C/c1ccc(OC(=O)c2ccco2)cc1)c1ccc[n+]([O-])c1	17.2%
CCOC(=O)Nc1ccc2nc3n(c(=O)c2c1)CCCCC3	7.45%
O=C(O)[C@H]1C[C@@H]1[C@H](NP(=O)(c1ccccc1)c1ccccc1)c1ccccc1	29%
CN1C(=O)/C(=C/c2ccc3c(c2)OCO3)N=C1c1ccccc1	22.9%
CCCOc1ccc(/C(O)=C2/C(=O)C(=O)N(CCN(C)C)C2c2ccncc2)cc1 (stereo not shown)	12.8%
COc1ccc(C(C)=O)cc1COC(=O)c1cc(=O)c2ccccc2o1	-3.98%
CCN(CC)CCNC(=O)C(Oc1ccccc1)Oc1ccccc1	-65.4%
CCOc1cc(NS(=O)(=O)c2ccc(OC)cc2)c(OCC)cc1NC(C)=O	-9.78%
Cc1cc(C)cc(OCC(=O)N2CCc3ccccc3C2)c1	4.55%
O=C(COC(=O)CCCSc1nc2ccccc2[nH]1)Nc1ccc(Oc2ccccc2)cc1	6.08%
COc1ccccc1CNC(=O)C/C(C)=N/NC(=O)COc1ccc(C)cc1Br	-63.9%
O=C(CN1C(=O)CSc2ccccc21)N/N=C/c1ccco1	4.07%
Cc1ccccc1NC(=O)c1ccc(C)c(S(=O)(=O)NCc2cccnc2)c1	7.35%
CCN1CCCC1CNC(=O)c1cc2ccc(OC)cc2[nH]1 (stereo not shown)	-12.4%
COc1ccc(NC(=O)c2c(N)no[n+]2[O-])cc1	-6.52%
O=C(c1ccccc1S(=O)(=O)NCC(O)COc1ccc([N+](=O)[O-])cc1)N1CCCCC1 (stereo not shown)	-56.8%

SMILES	hERG current change (%, negative = inhibition) at 10uM
COc1ccc(CNC(=O)C(c2ccc(C)cc2)N(Cc2cccs2)C(=O)c2ccc3c(c2)OCCO3)cc1 (stereo not shown)	15.6%
COc1cc2c(cc1OC)CN(C(=O)c1cccc([N+](=O)[O-])c1)CC2	4.01%
O=C1NC(=O)C(CCc2ccncc2)(C2CCCCC2)C(=O)N1	5.77%
CCOc1ccc(-c2csc(NC(=O)c3ccc(S(=O)(=O)N4CCc5ccccc5C4)cc3)n2)cc1	14%
Cc1coc2c(C)c3oc(=O)c(CCC(=O)N4CCC(C(=O)NCCCC(=O)O)(c5ccccc5)CC4)c(C)c3cc12	8.75%
C=CCn1c(O)c(C(CC)=NCc2ccc3c(c2)OCO3)c(=O)[nH]c1=O	3.09%
O=C(Cc1cccs1)NCc1ccccc1	1.94%
CC1CCCCN1C(=O)Cn1c(=O)oc2cc(S(=O)(=O)N3CCCCC3)ccc21 (stereo not shown)	8.43%
CCN(Cc1ccccc1)C(=O)CCS(=O)(=O)c1ccc2c(c1)n(C)c(=O)c(=O)n2C	-15%
O=C(CCl)Nc1c2c(nn1-c1ccccc1)CSC2	-15.8%
COc1ccc(S(=O)(=O)NNC(=O)c2sccc2-n2cccc2)cc1	2%
CCc1ccccc1NC(=S)Nn1cnnc1	13.6%
C=CCn1c(SCC(=O)Nc2cc(C)cc(C)c2)nnc1-c1cnccn1	-29.6%
Cc1cc(N2CCCCC2C)nc(-c2ccccc2O)n1 (stereo not shown)	-38.3%
COc1ccc(C2=NS(=O)(=O)N(C)C(C(=O)NC3CCCCC3)=C2)cc1	8.66%
Cn1c(SCc2cccnc2)nc2cccnc21	-0.229%
COC(=O)Nc1c(-c2ccccc2)nc2ccc(C)cn12	4.52%
COc1ccccc1NC(=O)Nc1cccc(C(=O)O)c1	17.5%
CCc1sc(N(C(=O)Cc2ccccc2)c2ccccc2F)nc1-c1ccc(C)cc1	30.7%
C=C(C)C1CCC2(C(=O)O)CCC3(C)C(CCC4C5(C)C(C=O)C(O)C(C)(C)C5CCC43C)C12 (stereo not shown)	-8.26%
COc1cc(OC)c(C(=O)OCC(=O)Nc2c(C)n(C)n(-c3ccccc3)c2=O)cc1OC	11.6%
COc1ccc(NC(=S)N(CCN(C)C)Cc2cccs2)cc1	-33.9%

SMILES	hERG current change (%, negative = inhibition) at 10uM
O=C(NNC(=O)C(c1ccccc1)c1ccccc1)c1ccccn1	-1.81%
Cc1[nH]c2ccccc2c1N=Nc1ccccc1C(=O)O	13.8%
COc1ccc2oc(C(=O)OCC(=O)N(C)c3ccccc3)c(C)c2c1	16.9%
Cc1cc(OCC(=O)NCC2CCC(C(=O)O)CC2)c2c(C)c(Cc3ccccc3)c(=O)oc2c1 (stereo not shown)	1.25%
Cc1ccc(NC(=O)C(C)Sc2nnc(C)n2C)cc1 (stereo not shown)	-2.87%
CC(C)C(NS(=O)(=O)c1ccccc1)C(=O)N1CCN(C(=O)c2ccco2)CC1 (stereo not shown)	7.3%
CSc1ccc(S(=O)(=O)N(CC(=O)NCc2ccccn2)c2ccc(C)cc2)cc1	-59.3%
CCN(CC)CCNCC(=O)N1c2ccccc2CCc2ccc(NC(=O)OC)cc21.Cl	17%
Cc1ccc2c(c1)C(c1ccc(F)cc1)N(C(=O)c1ccccc1Br)CC(=O)N2 (stereo not shown)	-16.1%
C/C(=N\N=C(/N)SC1CC(=O)N(c2ccccc2)C1=O)c1cccs1 (stereo not shown)	-0.317%
OC(COc1ccc(OCc2ccccc2)cc1)CN1CCCCC1 (stereo not shown)	-39.6%
CCOC(=O)/C=C/C(=O)Nc1ccc(S(=O)(=O)N2CCCCCC2)cc1	20.7%
CCCCCn1c(SCCOCC)nc2c1c(=O)[nH]c(=O)n2C	-46.8%
Cc1cccc(OCc2nnc(SCC(=O)N3CCCC3)n2C)c1	-5.79%
CCS(=O)(=O)c1ccc2c(c1)N(S(C)(=O)=O)CC(C(=O)NC1CC1)O2 (stereo not shown)	21.3%
CN(CC(=O)Nc1cccc2ccccc12)C(=O)/C=C/c1cccs1	-10.7%
O=C(COC(=O)COc1ccc(Cl)cc1)NCCNC(=O)COC(=O)COc1ccc(Cl)cc1	9.54%
CCCN(C(=O)Cn1nc(C)c([N+](=O)[O-])c1C)c1c(N)n(Cc2ccccc2)c(=O)[nH]c1=O	16.5%
Cc1cccc(Sc2nc(-c3ccccc3)ncc2C(=O)O)c1	11.7%
